Data taken from PubChem BioAssay AID488969 (Vanderbilt High Throughput Screening Facility, 2010).
The full ranking holds about 110,000 compounds; the median of “z-score” is about -0.1, and the highest 2% start at about 2. The list shows a part of the results.

The compounds below were run against Metabotropic glutamate receptor 8 (Rattus norvegicus) (UniProt P70579) (assay: rat mGluR8 modulators via GIRK flux, primary screen, cell-based, thallium flux, HTS (AID 488969)). Conditions: HEK293 rat mGluR8, GIRK (G protein-gated inwardly rectifying potassium channel) thallium flux, FluoZin2; at 10 µM; stronger effect = higher value; submaximal glutamate (EC20) added with thallium.
Sequence of UniProt P70579 (P70579 whole entry, looked up): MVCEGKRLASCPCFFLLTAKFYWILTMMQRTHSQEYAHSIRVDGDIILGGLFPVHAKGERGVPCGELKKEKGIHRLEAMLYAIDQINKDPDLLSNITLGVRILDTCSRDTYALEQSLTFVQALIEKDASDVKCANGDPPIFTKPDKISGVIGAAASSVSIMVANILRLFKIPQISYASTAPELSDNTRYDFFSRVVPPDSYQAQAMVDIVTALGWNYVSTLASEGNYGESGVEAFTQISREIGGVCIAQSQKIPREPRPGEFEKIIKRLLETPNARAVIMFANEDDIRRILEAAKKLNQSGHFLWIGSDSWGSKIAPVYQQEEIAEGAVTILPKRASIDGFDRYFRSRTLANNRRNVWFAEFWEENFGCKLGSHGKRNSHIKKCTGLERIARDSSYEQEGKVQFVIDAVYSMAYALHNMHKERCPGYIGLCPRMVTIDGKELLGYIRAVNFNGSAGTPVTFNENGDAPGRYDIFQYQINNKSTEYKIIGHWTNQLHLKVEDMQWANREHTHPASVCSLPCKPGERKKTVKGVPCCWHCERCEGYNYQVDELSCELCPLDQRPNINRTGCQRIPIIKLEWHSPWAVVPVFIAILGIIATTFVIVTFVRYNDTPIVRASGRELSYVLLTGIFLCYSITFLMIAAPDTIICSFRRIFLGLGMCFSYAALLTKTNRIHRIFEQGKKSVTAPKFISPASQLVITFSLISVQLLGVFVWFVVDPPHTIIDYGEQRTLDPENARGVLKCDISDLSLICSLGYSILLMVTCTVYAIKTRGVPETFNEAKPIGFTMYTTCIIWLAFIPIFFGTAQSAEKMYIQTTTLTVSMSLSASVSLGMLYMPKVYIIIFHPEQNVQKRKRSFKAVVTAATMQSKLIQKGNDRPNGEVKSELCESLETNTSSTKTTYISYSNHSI

Row | Compound | z-score
1 | Cc1c(N2C(=O)/C(=C\c3cccc4ccccc34)SC2=S)c(=O)n(-c2ccccc2)n1C | 0.63
2 | O=C(Nc1ccc2c(c1)OCO2)C1CC(c2ccc(Cl)cc2)=NO1 (stereo not given) | -0.0412
3 | CC1Cc2ccccc2N1S(=O)(=O)c1ccc2c(c1)n(C)c(=O)c(=O)n2C (stereo not given) | -0.427
4 | COc1ccccc1S(=O)(=O)Nc1ccc(-c2nnc3n2CCCCC3)cc1 | 0.00148
5 | CCOCCCNC(=O)C(NC(=O)CNC(=O)c1ccccc1)c1ccc(C)cc1 (stereo not given) | -0.197
6 | COc1ccc(CCNC(=O)CCNS(=O)(=O)c2cccc3nonc23)cc1OC | -0.484
7 | Cc1cccc2sc(N(CCCN(C)C)C(=O)CCc3ccccc3)nc12 | -0.976
8 | CN(Cc1cccs1)C(=O)CCc1ccc(S(=O)(=O)N2CCOCC2)cc1 | 0.00198
9 | Cc1ccccc1Cn1c(-c2cncs2)nc2ccccc21 | -2.34
10 | Cc1ccc2nc(SCCC(=O)O)cc(C)c2c1 | -0.26
11 | O=C1CC(=C(c2ccccc2)c2ccccc2)C(=O)N1CCN1CCN(c2cccc(Cl)c2)CC1 | -0.173
12 | CCOC(=O)c1[nH]c(=O)[nH]c1CSc1nc(C)cc(C)n1 | 0.156
13 | Cc1ccccc1NC(=S)N(CCN(C)C)C(C)c1ccco1 (stereo not given) | 0.0508
14 | Cc1ccc2[nH]c(=O)c(C3C(C#N)=C(N)Oc4c3ccc3cccnc43)cc2c1 (stereo not given) | -1.28
15 | Oc1ccc(/C=N/Nc2nc(-c3ccc(Cl)cc3)cc(C(F)(F)F)n2)cc1 | -0.242
16 | CCCC(c1nnnn1C(C)(C)CC)N(Cc1ccco1)Cc1cc2ccc(OC)cc2[nH]c1=O (stereo not given) | -0.316
17 | O=C(COc1ccc2ccccc2c1CN1CCOCC1)N1CCc2ccccc21 | -0.374
18 | COc1ccc(/C=N/NC(=S)Nc2cccc(C(=O)O)c2)cc1OC | 0.163
19 | COCC(=O)Nc1nnc(-c2cccs2)s1 | 0.0659
20 | O=C(NC1CCCC1)c1ccccc1-c1nc2ccccc2[nH]1 | 0.586
21 | Cc1ccc(CNC(=O)c2sc3ccc(S(=O)(=O)N4CCCCC4)cc3c2N)cc1 | -0.557
22 | Cc1ccccc1C(=O)N1CCC(C(N)=O)CC1 | -0.33
23 | CCc1ccccc1N/C(=N\S(=O)(=O)c1ccccc1)C(F)(F)F | -1.38
24 | C=CCOn1c(C)c(C(C)=O)c2c3nonc3ccc21 | -1.21
25 | CCOC(=O)CC(=O)Nc1ccccc1C(=O)O | 0.215
26 | COc1ccccc1Nc1nnc(C)c(=O)[nH]1 | -0.361
27 | CCC(=O)N1CCc2cc(Br)cc(S(=O)(=O)C3(C(=O)OC)CC3)c21 | -0.206
28 | CCN1C(=O)c2cccc3c(S(=O)(=O)Nc4ncccc4C)ccc1c23 | 0.148
29 | COCCNC(=O)C(=O)N/N=C/c1ccccc1C(F)(F)F | -0.508
30 | Clc1ccc(Cn2cc(/C=N/n3cnnc3)c3ccccc32)c(Cl)c1 | -0.0895
